Assay results from the supplement of paper PMC5499739.
Over roughly 16,000 sequences, “Z-score” has its median near -0.37; the highest 2% begin near 3.1. This is one part of the list.

The sequences below were run on RBM10 RRM1-ZnF-RRM2 (GST-tagged construct) (assay: RNAcompete 7-mer binding Z-score; higher = stronger binding preference).
Method: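 RNAcompete: 20 pmol GST-tagged RBM10 RNA-binding constructs were incubated with a designed RNA pool of about 241,000 sequences up to 41 nt (1.5 nmol) on glutathione beads for 30 min at 4 °C and washed. Bound RNAs were identified by microarray hybridisation. Each RNA 7-mer is scored by a one-sided Z-score of its enrichment, computed over probes that contain the 7-mer within longer pool sequences.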
UUUCGUU was tested, and the “RNAcompete 7-mer binding Z-score” value was -0.584.
For CCCCGAU, the “RNAcompete 7-mer binding Z-score” value was -0.577.
With GAAAGUU the “RNAcompete 7-mer binding Z-score” value was -0.0561.
For GCCUACG, the “RNAcompete 7-mer binding Z-score” value was -0.511.
With CGUUCAA the “RNAcompete 7-mer binding Z-score” value was -0.486.
GCGCUUA was tested, and the “RNAcompete 7-mer binding Z-score” value was -0.482.
For CGGUUGC, the “RNAcompete 7-mer binding Z-score” value was 0.166.
AUAAUGG was tested, and the “RNAcompete 7-mer binding Z-score” value was 1.84.
In the case of UACGCGG, the “RNAcompete 7-mer binding Z-score” value is reported as 0.428.
GGGGACA was tested, and the “RNAcompete 7-mer binding Z-score” value was 2.72.
With CGCAUUA the “RNAcompete 7-mer binding Z-score” value was -0.617.
In the case of UCUCCGG, the “RNAcompete 7-mer binding Z-score” value is reported as -0.588.
In the case of UAAAUCA, the “RNAcompete 7-mer binding Z-score” value is reported as -0.246.
In the case of GCUCCUU, the “RNAcompete 7-mer binding Z-score” value is reported as -0.73.
In the case of GGCCGUU, the “RNAcompete 7-mer binding Z-score” value is reported as -0.588.
For UGACACC, the “RNAcompete 7-mer binding Z-score” value was -0.566.
For UUAGACU, the “RNAcompete 7-mer binding Z-score” value was -0.628.
With GGGCGCG the “RNAcompete 7-mer binding Z-score” value was 2.1.
With GAUAUGU the “RNAcompete 7-mer binding Z-score” value was 0.0969.
For GACGGGA, the “RNAcompete 7-mer binding Z-score” value was 2.3.
With CGCGGAG the “RNAcompete 7-mer binding Z-score” value was 0.876.
AGUCAUU was tested, and the “RNAcompete 7-mer binding Z-score” value was -0.515.
With UUCGACC the “RNAcompete 7-mer binding Z-score” value was -0.785.
AGAAUAU was tested, and the “RNAcompete 7-mer binding Z-score” value was -0.158.
With GACCGCA the “RNAcompete 7-mer binding Z-score” value was -0.843.
For CUCCGUG, the “RNAcompete 7-mer binding Z-score” value was -0.606.
For UACAUGA, the “RNAcompete 7-mer binding Z-score” value was -0.0853.
CGACGGU was tested, and the “RNAcompete 7-mer binding Z-score” value was 0.261.
In the case of CCUGACC, the “RNAcompete 7-mer binding Z-score” value is reported as -0.876.
For AUCGCAC, the “RNAcompete 7-mer binding Z-score” value was -0.566.
GACCCGG was tested, and the “RNAcompete 7-mer binding Z-score” value was -0.559.
In the case of GUAAUCG, the “RNAcompete 7-mer binding Z-score” value is reported as 0.0422.
GUUUUCU was tested, and the “RNAcompete 7-mer binding Z-score” value was -0.559.
GAAGUCC was tested, and the “RNAcompete 7-mer binding Z-score” value was -0.5.
In the case of CUUCUGU, the “RNAcompete 7-mer binding Z-score” value is reported as -0.85.
With GAAUCAU the “RNAcompete 7-mer binding Z-score” value was -0.0634.
UGAUCAA was tested, and the “RNAcompete 7-mer binding Z-score” value was -0.435.
For CAUACAU, the “RNAcompete 7-mer binding Z-score” value was -0.519.
In the case of UUCCGAU, the “RNAcompete 7-mer binding Z-score” value is reported as -0.77.
For UACACUA, the “RNAcompete 7-mer binding Z-score” value was -0.442.
With CGAUUAU the “RNAcompete 7-mer binding Z-score” value was -0.65.
GGUCGAC was tested, and the “RNAcompete 7-mer binding Z-score” value was 0.385.
For CGUAGCA, the “RNAcompete 7-mer binding Z-score” value was -0.213.
CAUGAUG was tested, and the “RNAcompete 7-mer binding Z-score” value was -0.0561.
With UCGAACA the “RNAcompete 7-mer binding Z-score” value was -0.278.
With UGGAUUA the “RNAcompete 7-mer binding Z-score” value was 0.975.
In the case of GCCUUCU, the “RNAcompete 7-mer binding Z-score” value is reported as -0.697.
GUAGGUA was tested, and the “RNAcompete 7-mer binding Z-score” value was 2.25.
For AUCGUCU, the “RNAcompete 7-mer binding Z-score” value was -0.712.
In the case of CUCGGUA, the “RNAcompete 7-mer binding Z-score” value is reported as -0.377.
For GAGCUGA, the “RNAcompete 7-mer binding Z-score” value was 0.213.
In the case of GAUCUCC, the “RNAcompete 7-mer binding Z-score” value is reported as -0.897.
For UCCGGUC, the “RNAcompete 7-mer binding Z-score” value was -0.668.
With GCGCCAU the “RNAcompete 7-mer binding Z-score” value was -0.522.
For CGAUGUA, the “RNAcompete 7-mer binding Z-score” value was 0.0641.
In the case of UCACAUU, the “RNAcompete 7-mer binding Z-score” value is reported as -0.675.
In the case of CCUUUAU, the “RNAcompete 7-mer binding Z-score” value is reported as -0.941.
For GCUAGGA, the “RNAcompete 7-mer binding Z-score” value was 1.05.
With GUUCAAG the “RNAcompete 7-mer binding Z-score” value was -0.0124.
With CGAGAGC the “RNAcompete 7-mer binding Z-score” value was -0.136.
With GCUCCCC the “RNAcompete 7-mer binding Z-score” value was -0.464.
With UCCCGAU the “RNAcompete 7-mer binding Z-score” value was -0.85.
CCCUCCC was tested, and the “RNAcompete 7-mer binding Z-score” value was -0.457.
For GGCACUC, the “RNAcompete 7-mer binding Z-score” value was -0.216.
UGUACCC was tested, and the “RNAcompete 7-mer binding Z-score” value was -0.581.
For UUUGACG, the “RNAcompete 7-mer binding Z-score” value was -0.551.
With GUAUCCU the “RNAcompete 7-mer binding Z-score” value was -0.694.
In the case of CGCAGAG, the “RNAcompete 7-mer binding Z-score” value is reported as 0.436.
UACCGGA was tested, and the “RNAcompete 7-mer binding Z-score” value was 0.119.
In the case of UAGCGAC, the “RNAcompete 7-mer binding Z-score” value is reported as 0.162.
In the case of AGCCCCG, the “RNAcompete 7-mer binding Z-score” value is reported as -0.679.
With CGUCAGG the “RNAcompete 7-mer binding Z-score” value was 0.326.
With UGCGUAG the “RNAcompete 7-mer binding Z-score” value was 0.326.
For UACGGGU, the “RNAcompete 7-mer binding Z-score” value was 2.02.
In the case of UUAGUCC, the “RNAcompete 7-mer binding Z-score” value is reported as -0.686.
In the case of CUCUUAG, the “RNAcompete 7-mer binding Z-score” value is reported as -0.661.
AUCCCCC was tested, and the “RNAcompete 7-mer binding Z-score” value was -0.435.
For UGAGAAG, the “RNAcompete 7-mer binding Z-score” value was 1.33.
With GCAUUCA the “RNAcompete 7-mer binding Z-score” value was -0.449.
For AAAGUUU, the “RNAcompete 7-mer binding Z-score” value was -0.322.
With GAAACUA the “RNAcompete 7-mer binding Z-score” value was -0.337.
With GGCACAU the “RNAcompete 7-mer binding Z-score” value was 0.213.
In the case of UUCGGCA, the “RNAcompete 7-mer binding Z-score” value is reported as -0.493.
GCAUCGG was tested, and the “RNAcompete 7-mer binding Z-score” value was 0.275.
With GACGCUC the “RNAcompete 7-mer binding Z-score” value was -0.774.
In the case of CUACCCA, the “RNAcompete 7-mer binding Z-score” value is reported as -0.948.
In the case of CCGUGGG, the “RNAcompete 7-mer binding Z-score” value is reported as 1.89.
For AAGGGAC, the “RNAcompete 7-mer binding Z-score” value was 3.43.
For UAACUUA, the “RNAcompete 7-mer binding Z-score” value was -0.475.
For CGUGCUU, the “RNAcompete 7-mer binding Z-score” value was -0.675.
In the case of GGACGGG, the “RNAcompete 7-mer binding Z-score” value is reported as 4.18.
For GUGGGUG, the “RNAcompete 7-mer binding Z-score” value was 3.76.
